Experimental data: PubChem BioAssay AID624417 (National Center for Advancing Translational Sciences (NCATS), 2012)
Out of some 410,000 compounds screened, about 6,400 (1.6%) were called active. This list was built around the results that the source calls inconclusive (neither active nor inactive); the mix of calls is not that of the screen. The call rests on the fitted dose curve; in most records, active means well fitted inhibition curve with a large enough effect; inconclusive means small, poorly fitted or top-dose-only effect; inactive means no such curve, though single readings can be large or run the other way. No potency is given beside an inconclusive call; the fits are too rough.
Further: nearly all actives have a fitted effect of over 55% in size.
On the % scale 0 is the no-effect control and ±100 the full control effect; potency means the concentration at half of the fitted maximal effect; tags describe the fitted curve by direction and shape.

What follows are molecules tested against Glucagon-like peptide 1 receptor (Homo sapiens) (UniProt P43220) (assay: qHTS of GLP-1 Receptor Inverse Agonists (Inhibition Mode)). Details: HEK293 GLP-1R CRE-luciferase, luminescence, 24 h, GLP-1R form is constitutively active; activity change, negative = inhibition: at 38.3 µM (top of the series) unless noted.
Chain of UniProt P43220 (P43220 whole entry, looked up): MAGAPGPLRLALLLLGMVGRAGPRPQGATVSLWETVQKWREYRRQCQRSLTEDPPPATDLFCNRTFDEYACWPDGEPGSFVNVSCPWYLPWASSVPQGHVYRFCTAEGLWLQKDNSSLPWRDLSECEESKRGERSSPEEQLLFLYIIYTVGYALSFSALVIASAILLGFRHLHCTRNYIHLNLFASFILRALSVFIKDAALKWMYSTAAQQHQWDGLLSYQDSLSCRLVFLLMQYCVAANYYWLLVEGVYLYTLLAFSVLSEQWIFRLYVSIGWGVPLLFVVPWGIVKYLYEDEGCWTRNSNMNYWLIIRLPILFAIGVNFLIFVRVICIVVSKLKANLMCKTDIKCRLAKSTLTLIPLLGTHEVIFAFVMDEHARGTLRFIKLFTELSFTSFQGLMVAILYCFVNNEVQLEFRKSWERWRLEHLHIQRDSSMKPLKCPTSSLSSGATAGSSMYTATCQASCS
In short: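 GLP-1R inverse agonism mode: basal reporter luminescence in engineered HEK293 cells measured after one day of compound exposure at 37 deg C, with a 12 min room-temperature detection step.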
In the case of `Cc1ccc(C(O)c2ncc(-c3ccc(C(F)(F)F)cc3)[nH]2)cc1F` (stereo not given), the Potency is reported as inconclusive [inhibitor, partial curve, poor fit].
In the case of `O=C(O)CC1=C(Nc2ccccc2)C(=O)N(c2ccccc2)C1c1ccc(Cl)cc1` (stereo not given), the Potency is reported as inconclusive [inhibitor, partial curve, poor fit].
With `CSCc1ccc(C(=O)NCCSc2ccc(Br)cc2)cc1` the Potency was inconclusive [inhibitor, partial curve, poor fit].
For `O=C(Nc1ccn(CCCNCCN2CCOCC2)c(=O)n1)OCc1ccccc1`, the “activity change, negative = inhibition” value was inactive: -11.6%.
In the case of `CCOc1ccccc1CNC(=O)CCCc1cn(C)c2ccccc12`, the Potency is reported as inconclusive [inhibitor, single point].
In the case of `Cc1ccc(-c2cnc(C(O)c3cccc(C)c3C)[nH]2)cc1` (stereo not given), the Potency is reported as inconclusive [inhibitor, partial curve, poor fit].
`COc1cc(-c2ccc3oc(-c4cccc(C)c4)c(C#CC4(O)CCCCC4)c3c2)cc(OC)c1OC` was tested, and the Potency was inconclusive [inhibitor, partial curve, poor fit].
For `CCC(C)c1nc2ccsc2c(N2CCOC2=O)c1-c1ccccc1` (stereo not given), the Potency was inconclusive [inhibitor, single point].
In the case of `O=C(NC1CCCCC1)C(c1ccco1)N(C(=O)c1csnn1)C1CCCC1` (stereo not given), the Potency is reported as inconclusive [inhibitor, single point].
For `CC(CC(=O)Nc1nnc(CC(C)(C)C)s1)c1ccccc1` (stereo not given), the Potency was inconclusive [inhibitor, full curve].
`Cc1ccc(-n2c(SCC(=O)c3c(N)n(C)c(=O)n(C)c3=O)nc3sc4c(c3c2=O)CCCC4)c(C)c1` was tested, and the Potency was inconclusive [inhibitor, full curve, poor fit].
With `COc1ccc(C(=O)c2c(C(F)(F)F)oc3c2C(=O)c2ccccc2C3=O)cc1` the Potency was active: 7.08 µM.
`Cc1ccc(C)c(C(=O)Cn2c(NCCO)nc3ccccc32)c1` was tested, and the Potency was inconclusive [inhibitor, single point].
With `Fc1ccc2[nH]c3c(N4CCc5ccccc5C4)ncnc3c2c1` the Potency was inconclusive [inhibitor, single point].
With `COc1ccc(NC(=O)CCCN2C(=O)/C(=C\c3ccco3)SC2=S)cc1` the Potency was inconclusive [inhibitor, partial curve].
With `CN(CC(=O)Nc1cccc(F)c1)C(=O)c1cn(-c2ccccc2)nc1-c1cccs1` the Potency was inconclusive [inhibitor, partial curve, poor fit].
In the case of `O=C1OC(c2ccc3ccccc3c2O)(c2ccc3ccccc3c2O)c2ccccc21`, the Potency is reported as inconclusive [inhibitor, partial curve, poor fit].
In the case of `CCc1ccccc1NC(=O)Cn1nnc(C(=O)NCc2ccco2)c1N`, the Potency is reported as inconclusive [inhibitor, full curve].
In the case of `COc1cccc(NC(=S)NC(=O)/C=C/c2ccco2)c1`, the “activity change, negative = inhibition” value is reported as inactive: 12.6%.
With `COc1ccccc1-c1sc2ccccc2c1-c1ccc(OCCN2CCCCC2)cc1` the Potency was inconclusive [inhibitor, partial curve, poor fit].
For `CC(=O)OC(COc1ccccc1)Cn1cnc2ccccc21` (stereo not given), the “activity change, negative = inhibition” value was inactive: 5.43%.
For `Cc1cc(C)cc(NC(=S)NCc2ccc3[nH]c4c(c3c2)CCCC4)c1`, the Potency was inconclusive [inhibitor, partial curve, poor fit].
In the case of `CC(C)CC(=O)Nc1ccc(C(=O)NNC(=S)NC(=O)C2CCCCC2)cc1`, the Potency is reported as inconclusive [inhibitor, single point].
`Cc1ccc(-c2nc(CS(=O)(=O)CC(=O)NC(C)CCc3ccccc3)c(C)o2)cc1` (stereo not given) was tested, and the Potency was inconclusive [inhibitor, single point].
With `COc1ccc(/C=C/c2nc(C#N)c(N3CCC(C(N)=O)CC3)o2)cc1OC` the “activity change, negative = inhibition” value was inactive: 25.9%.
`COc1ccc(NC(=O)C2CCC(CNS(=O)(=O)c3csc(C(N)=O)c3)CC2)cc1OC` (stereo not given) was tested, and the Potency was inconclusive [inhibitor, single point].
In the case of `O=C(NCc1ccccc1)C(c1ccc(C(F)(F)F)cc1)n1c(=O)c(-c2cc3ccccc3[nH]2)nc2ccccc21` (stereo not given), the Potency is reported as active: 4.47 µM.
`O=C(O)c1cccc(NC(=S)NC(NC(=O)c2ccco2)C(Cl)(Cl)Cl)c1` (stereo not given) was tested, and the “activity change, negative = inhibition” value was inactive: 10.8%.
`O=C(c1cc(COc2ccc(F)cc2Cl)on1)N(CCO)Cc1cccs1` was tested, and the Potency was inconclusive [inhibitor, partial curve, poor fit].
`CC1(C(=O)Nc2ccccc2Cc2ccccc2)CCN1Cc1ccccc1Cl` (stereo not given) was tested, and the Potency was inconclusive [inhibitor, single point].
With `CCOc1ccc(S(=O)(=O)Nc2nc3ccccc3nc2Cl)cc1` the Potency was inconclusive [inhibitor, single point].
`CCN(CC)CCSc1nnc(Nc2ccccc2)n1-c1ccccc1` was tested, and the Potency was inconclusive [inhibitor, partial curve, poor fit].
For `CC(NC(=O)CCc1cn(Cc2ccccc2Cl)c2ccccc12)c1ccccc1` (stereo not given), the “activity change, negative = inhibition” value was inactive: -8.72%.
In the case of `O=C(NN=C1CCC(=NNC(=O)c2cccnc2)CC1)c1cccnc1`, the Potency is reported as inconclusive [inhibitor, partial curve, poor fit].
For `COc1ccc(S(=O)(=O)Nc2ccccc2)cc1`, the “activity change, negative = inhibition” value was inactive: -21.2%.
With `Cc1cccc(CSCCNC(=S)Nc2ccccc2)c1` the Potency was inconclusive [inhibitor, single point].
With `Cc1c(Cl)cccc1-n1nnnc1-c1cccs1` the Potency was inconclusive [inhibitor, partial curve, poor fit].
For `CC(C)c1ccc(-c2nn(-c3ccccc3)cc2C(=O)NCC2CCCO2)cc1` (stereo not given), the Potency was inconclusive [inhibitor, partial curve, poor fit].
With `COc1ccccc1C(C)NCC(=O)Nc1ccccc1C(F)(F)F` (stereo not given) the Potency was inconclusive [inhibitor, partial curve, poor fit].
In the case of `CCOC(=O)[C@]12CCC=C1N(Cc1ccc(Cl)cc1Cl)C(=O)[C@H](CC(=O)NCC13CC4CC(CC(C4)C1)C3)C2`, the Potency is reported as inconclusive [inhibitor, single point].
